Experimental data reported in PubChem BioAssay AID651582 (Sanford-Burnham Center for Chemical Genomics, 2012).
The other results are listed elsewhere or left out. Further columns of the screen follow, without active or inactive calls. The list favours compounds with an active or inconclusive main result.

Assay: inhibitors of triacylglycerol accumulation, primary screen, cell-based, uHTS, fluorescence, H9c2 (AID 651582)
Settings: H9c2 cells, Nile Red lipid (TAG) fluorescence; measured here:; at 12.5 µM; cells loaded with 200 µM oleic acid

Structure (SMILES)	DAPI nuclei signal change (viability), lower = more cytotoxic
NC(Cc1ccc(F)cc1)c1csc(Nc2ccc(C(F)(F)F)cn2)n1 (stereo not drawn)	-42%
COc1cc2c3c(c1)c(C1=NC(=S)NC1=O)c(O)n3C(C)(C)C=C2C	-7.52%
Cc1ccc2cc3cc(C(=O)NCCCN4CCCCCC4)oc3nc2c1	62.5%
Fc1cccc(/C=N/Nc2cc(N3CCOCC3)ncn2)c1	-15.9%
COc1cccc(/C=C/C(=C2\C(=O)N(c3ccccc3)N=C2C)c2ccc(Br)cc2)c1OC	6.95%
Oc1c(C(Nc2nccs2)c2ccc(C(F)(F)F)cc2)ccc2cccnc12 (stereo not drawn)	-10.3%
Cn1nnnc1Sc1ncnc2scc(-c3ccc(-c4ccccc4)cc3)c12	-32.1%
CN1Cc2c(N3CCOCC3)nc3sc(C(=O)c4ccc(Br)cc4)c(N)c3c2CC1(C)C	-8.73%
CC1=CC(C)(C)Nc2ccc(OC(=O)CN3C(=O)c4ccccc4C3=O)cc21	-17.9%
CCOc1ccc(S(=O)(=O)NCc2ccccn2)cc1NC(=O)c1ccccc1	-23.5%
COc1cccc(NC(=O)N2CCc3nc(Nc4ccc(C(C)C)cc4)ncc3C2)c1	-4.87%
Cc1ccc(NC(=O)c2cc3ccccc3o2)cc1S(=O)(=O)N(C)C	-24.7%
COc1ccc(CNC(=O)Nc2nc(C(N)Cc3ccc(C(F)(F)F)cc3)cs2)cc1 (stereo not drawn)	-40.8%
Cc1ccc(Nc2nc(OC(C(F)(F)F)C(F)(F)F)nc(N3CCOCC3)n2)cc1	-44.3%
O=C(N/N=C/c1cccc2cccnc12)c1ccccc1O	-18.6%
COC(=O)C1=C(C)N(Cc2ccccc2)C(=NCC(C)C)N[C@H]1c1cccc(F)c1	-40.9%
O=C1NC(Cc2ccc(O)cc2)c2nc3ccc(Cl)cc3c(=O)n2-c2cc3ccccc3cc21 (stereo not drawn)	-28.1%
CCOC(=O)c1cnn(-c2nc(-c3ccccc3)nc3c2COC(C)(C)C3)c1N	-16.5%
CSc1nc(N(C)NC(=O)c2ccccc2)c2ccccc2n1	-35.5%
c1ccc(/N=C2\N=C(Nc3ccccn3)c3ccccc32)nc1	-11.2%
CC1CC2(C)Oc3ccccc3CC2C(C)C1CNCCCN(C)C (stereo not drawn)	-44%
Cc1ccc(NC(=O)Cn2nnc(-c3ccccc3NC(=O)c3cccs3)n2)cc1	-18.3%
COc1ccc(-n2cc(CN3CCCC3)c(-c3cccc(F)c3)n2)cc1	-45.1%
C=CCC[C@@H](Cc1ccc(F)cc1)C(=O)OC[C@@H](NC(=O)[C@@H](CC=C)CC(=O)N[C@H](CO)Cc1ccccc1)C(C)(C)C	-21.8%

Structure (SMILES)	DAPI nuclei signal change (viability), lower = more cytotoxic
O=C(/C=C/c1ccc(OCCCF)cc1)NCc1ccc(Cl)c(Cl)c1	3.71%
CC1CCN(S(=O)(=O)c2ccc3c(c2)C(=NO)c2cc(S(=O)(=O)N4CCC(C)CC4)ccc2-3)CC1	3.63%
CCOC(=O)C(C(=O)OCC)C(C(=O)OCC)N1CCOCC1 (stereo not drawn)	-45%
CCNc1nc(SC(C)C(=O)Nc2ccccc2)nc(N(C)C)n1 (stereo not drawn)	-12.9%
CCC(=O)OCCNc1cc(Sc2nccn2C)c2nonc2c1[N+](=O)[O-]	-37.7%
Cc1onc(-c2ccc(Cl)cc2Cl)c1-c1csc(N/N=C/c2ccccc2)n1	-8.66%
CC(C)(C)c1cc(CCC(=O)N2CCNCC2)c(C(C)(C)C)cc1O	-14%
CCCC(=O)Nc1nc2ccc(NC(=O)c3ccccc3F)cc2s1	-18.4%
O=C(Cc1n[nH]c(=O)c2ccccc12)OCC(=O)c1ccc2c(c1)OCCO2	-33.5%
Cc1cccc(-c2ccc3[nH]c4c(c3c2)CCN2C[C@@H]([C@H](C)OC(=O)Nc3ccccc3C)[C@@H](N(C)C(=O)Nc3ccccc3C)C[C@@H]42)c1	-8.78%
Cn1c(N=Nc2ccc(N3CCOCC3)cc2)[n+](C)c2ccccc21	-8.51%
CCCCCOc1ccc(NC(=O)CSc2cccc3cccnc23)cc1	-33.2%
Cc1cccc(Nc2nc(N)nc(CCl)n2)c1C	-36.4%
Nc1c(C(=O)NCc2ccccc2)sc2nc(N3CCOCC3)c3c(c12)CCCC3	37.2%
CCOc1ccc2nc(NC(=O)c3ccccn3)sc2c1	-27.2%
CC(=NNc1nc2ccccc2o1)c1ncccn1	-37.9%
Cc1ccccc1N=Nc1ccc(O)c2ncccc12	-41.4%
CCOc1ccccc1N1CCN(S(=O)(=O)c2ccc3c4c(cccc24)C(=O)N3)CC1	-21.4%
COc1ccccc1NS(=O)(=O)c1cc(NC(=O)/C=C/c2cccs2)ccc1N1CCOCC1	-42.8%
Cc1ccc2nc(N(CCCN(C)C)C(=O)c3cc(-c4cccs4)nc4ccccc34)sc2c1	8.1%
COc1ccc2nc(-c3ccccn3)[nH]c2c1	-47.9%
Cc1ccc(-n2c(=O)[nH]c3cc(C(=O)NC4CCN(Cc5ccccc5)CC4)ccc3c2=O)cc1	-19.5%
CCOc1ccc(C(=O)NC(=S)Nc2cccc(S(=O)(=O)NC3=NCCC3)c2)cc1	-24.3%
O=C(C[C@H]1C[C@H](C(=O)N2CCOCC2)[C@@]2(CCC3CCCC3)c3[nH]c4ccc(Cl)cc4c3CCN2C1=O)NCC12CC3CC(CC(C3)C1)C2	-19.3%

Structure (SMILES)	DAPI nuclei signal change (viability), lower = more cytotoxic
Cc1[nH]c2ccccc2c1/C=N/Nc1ccccc1[N+](=O)[O-]	-1.97%
CCCC1=Nc2cc(C(=O)NCCCOCC)ccc2Sc2ccccc21	-39%
O=C1C=C(NCCc2cc(Br)c(O)c(Br)c2)C(=O)c2ncccc21	-29.8%
CC(C)C[C@H]1CNC(=S)N1CC1CCCN1C[C@H](CC(C)C)N1C[C@H](CC(C)C)N(CCc2ccccc2)C1=S (stereo partly drawn)	-6.43%
N=c1n(CCO)c2ccccc2n1CCOc1ccc(Cl)cc1Cl	-33.4%
COc1ccc2nc(SCC(=O)N3CC(=O)Nc4ccccc43)c(C#N)cc2c1	-16.4%
CCOC(=O)c1ccc(NC2=CC(=O)C(=O)c3ccccc32)cc1	-25.6%
Cc1ccc2nc(-c3ccc(NC(=S)NC4CC(C)(C)NC(C)(C)C4)cc3)sc2c1	63.8%
Nc1c(Cl)cc(-c2csc(N3CCCC3c3nc4cc(Cl)c(N5CCCCC5)cc4n3CCCO)n2)cc1Cl (stereo not drawn)	-13.2%
CCOc1ccc(C(=O)Nc2nnc(NC(=S)Nc3ccccc3)s2)cc1	-1.26%
COc1ccc2cc1Oc1ccc(cc1)C[C@H]1c3c(cc(OC)c4c3Oc3c(ccc5c3[C@H](C2)N(C)CC5)O4)CCN1C	-39.8%
COc1cc(-c2noc(C)c2C#Cc2ccc(N)cc2)cc(OC)c1OC	-32.4%
O=[N+]([O-])c1ccc(Nc2nc(N3CCOCC3)nc(N3CCOCC3)n2)cc1	-21.5%
CCC(=O)NC(Nc1sc2c(c1C(=O)OC)CCCC2)(C(F)(F)F)C(F)(F)F	9.01%
Cc1cccc(NC(=O)c2ccc([N+](=O)[O-])o2)c1C	-46.5%
O=C(Nc1ccccc1N1CCCCC1)c1ncoc1-c1ccc(F)cc1	-15.2%
CCCCC(=O)NC(c1cccc([N+](=O)[O-])c1)c1ccc2cccnc2c1O (stereo not drawn)	-47.2%
CCOC(=O)[C@H]1[C@H]2COc3ccc(Br)cc3[C@@H]2N2C(=O)c3cc(Br)ccc3NC(=O)[C@@]12C	-20.3%
CN(C)CCCn1c(=O)n(C2CCCCC2)c(=O)c2c3c(sc21)CCCCC3	-28.5%
CCCCCCCCn1c(N2CCN(c3cccc(Cl)c3)CC2)nc2c1c(=O)[nH]c(=O)n2C	11.5%
CC1=NN(c2ccccc2)C(=O)/C1=C/C=C/c1ccc(N(C)C)cc1	-2.55%
N#Cc1ccc(C23CC4(C2)[C@H](CN(P(=O)(c2ccccc2)c2ccccc2)[C@@H]4c2ccccc2)C3c2ccc(Cl)nc2)cc1 (stereo partly drawn)	-23.4%
C=CCC[C@@H](Cc1ccc(F)cc1)C(=O)OC[C@@H](Cc1c[nH]c2ccccc12)NC(=O)[C@@H](CC=C)CC(=O)N(CCO)Cc1ccccc1	6.46%
C/C(N=Nc1nc2ccccc2s1)=N\Nc1ccccc1O	-9.99%

Structure (SMILES)	DAPI nuclei signal change (viability), lower = more cytotoxic
CCOc1ccc2nc(NC(=O)CN3CCC(n4nnc5cc(F)ccc54)CC3)sc2c1	-3.02%
Cc1ccc(NC(=O)c2nc[nH]c2C(=O)NCCCCCCNC(=O)c2[nH]cnc2C(=O)Nc2ccc(C)cc2)cc1	0.438%
Cc1ccc(Cc2nnc(SCC(=O)Nc3ccccc3)n(N)c2=O)cc1	3.19%
CCCCCc1cc(=O)oc2c(C(CCN3CCCC3)c3ccc(N(C)C)cc3)c(OC)cc(OC)c12 (stereo not drawn)	-32.9%
CCOc1ccc(NC(=O)CN(C)C(=O)c2cc(-c3ccc(OC)cc3)nc3ccccc23)cc1OCC	15.2%
O=C(Nc1nc(-c2ccccn2)cs1)c1cccc(-n2cnnn2)c1	-44.5%
O=C(Nc1cccc(S(=O)(=O)N2CCCCC2)c1)c1ccc([N+](=O)[O-])o1	-46.4%
CN(C)c1ccc(NC(=O)Nc2nc(C(N)C3CCCCC3)cs2)cc1 (stereo not drawn)	-26.1%
CCCSc1nc(SCC(=O)NCc2ccccc2)c2c3c(sc2n1)COC(C)(C)C3	3.63%
COc1ccc(-c2csc(NC(=S)NC(=O)/C=C/c3ccco3)n2)cc1Br	-32.3%
COc1ccc(CC(N)c2csc(NC(=O)NCc3ccccc3)n2)cc1 (stereo not drawn)	-31.1%
CCOC(=O)c1c(NC(=O)C2c3ccccc3Oc3ccccc32)sc(C(=O)N(CC)CC)c1C	-17.5%
COc1ccc(CNC(=O)C2CCN(c3nc(-c4ccccc4)nc4c3CCC4)CC2)cc1	-3.52%
NC(=O)c1cccc(-c2ccnc3c2CC(C(=O)NCc2ccccc2)O3)c1 (stereo not drawn)	-29.1%
FC(F)Oc1ccc(-c2csc(NNC3=NCCCCC3)n2)cc1	-9.49%
Cc1ccc(Cn2c(C(C)Nc3nc(-c4ccc(Cl)c([N+](=O)[O-])c4)cs3)nc3cc(C(F)(F)F)ccc32)cc1 (stereo not drawn)	-25.9%
CN1CCN(C2=C(Cl)C(=O)c3ccccc3C2=O)CC1	-12.2%
C[C@@]12C(=O)Nc3cc(Cl)ccc3C(=O)N1[C@H]1c3cc(Br)ccc3OC[C@@H]1[C@@H]2c1ccccc1	-38%
CCOc1cc2nc(-c3ccc(OC)c(OC)c3)nc(NCCCN3CCOCC3)c2cc1OC	19.1%
N#CCC(=O)N/N=C/c1cn(Cc2ccc(Cl)c(Cl)c2)c2ccccc12	-49%
CCN(CC)C(=O)[C@H]1C[C@H](CC(=O)NCCCn2ccnc2)C(=O)N2CCc3c([nH]c4cc(CCC(=O)N(C)C)ccc34)[C@]12C	-42.9%
